{"source": "PubChem BioAssay AID1460", "about": "(National Center for Advancing Translational Sciences (NCATS), 2008)", "note": "Among all 270,000 compounds or so, about 5,800 (2.1%) were called active. Inconclusive means that the source gave no clear call. Such entries were picked first, then a sample of the others. Calls follow the shape of the dose curve; as a rule, active = well fitted inhibition curve with a large enough effect; inconclusive = small, poorly fitted or top-dose-only effect; inactive = flat fitted curve, though single readings scatter. Where the call is inconclusive, the potency comes from a doubtful curve fit. Potency is read from the fitted curve at half-maximal effect; tags tell the direction and shape of the fitted curve.", "data": [{"molecular_target": "Microtubule-associated protein tau (Homo sapiens) (UniProt P10636)", "sequence (P10636 whole entry, looked up, the tested form may be a part)": "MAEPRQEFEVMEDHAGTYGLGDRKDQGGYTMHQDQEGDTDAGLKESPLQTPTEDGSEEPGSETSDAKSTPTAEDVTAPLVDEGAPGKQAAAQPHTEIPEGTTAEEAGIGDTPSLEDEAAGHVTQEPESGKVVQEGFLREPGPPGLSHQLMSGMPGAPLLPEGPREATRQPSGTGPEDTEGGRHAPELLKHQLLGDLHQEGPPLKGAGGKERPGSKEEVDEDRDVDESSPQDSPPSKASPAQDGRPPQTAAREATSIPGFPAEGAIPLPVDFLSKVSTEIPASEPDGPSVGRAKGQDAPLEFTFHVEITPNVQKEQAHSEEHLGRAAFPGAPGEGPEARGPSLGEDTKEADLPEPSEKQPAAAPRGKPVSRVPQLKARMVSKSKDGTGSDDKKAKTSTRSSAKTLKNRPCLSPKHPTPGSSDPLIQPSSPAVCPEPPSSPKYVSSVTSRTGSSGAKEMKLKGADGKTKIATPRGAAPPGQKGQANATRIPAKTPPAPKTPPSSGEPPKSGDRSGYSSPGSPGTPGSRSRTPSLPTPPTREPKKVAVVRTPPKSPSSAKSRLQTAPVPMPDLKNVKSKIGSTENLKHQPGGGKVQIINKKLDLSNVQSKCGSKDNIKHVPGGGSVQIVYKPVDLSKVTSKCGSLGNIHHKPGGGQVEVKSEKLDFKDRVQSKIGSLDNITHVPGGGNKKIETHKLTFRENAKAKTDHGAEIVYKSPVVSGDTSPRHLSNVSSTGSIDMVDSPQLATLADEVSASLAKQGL", "test": "qHTS for Inhibitors of Tau Fibril Formation, Thioflavin T Binding; also: nearly all actives have a fitted effect of over 55% in size", "settings": "recombinant tau K18 P301L (four-repeat tau fragment), heparin-induced fibrillization, ThT fluorescence; series mostly up to 57.4 µM", "summary_of_the_method": "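In this qHTS, human K18 P301L tau is incubated with compound and heparin for 6 hr at 37 C, and Thioflavin T fluorescence then reports fibril load.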", "values": [{"smiles": "O=C(O)C(O)C(O)C(O)C(O)C(=O)O", "note": "(configuration not stated)", "Potency": "inactive"}, {"smiles": "CCOC(=O)Cn1nnnc1C(CC)N(Cc1cc2ccc(C)cc2[nH]c1=O)C1CCCC1", "note": "(configuration not stated)", "Potency": "inconclusive: 39.8 µM [inhibitor, partial curve, poor fit]"}, {"smiles": "CCOC(=O)c1cn(CC)c2ccc(S(=O)(=O)N3CC(C)CC(C)C3)cc2c1=O", "note": "(configuration not stated)", "Potency": "inconclusive: 15.8 µM [inhibitor, partial curve]"}, {"smiles": "COc1ccc(-c2csc(NCc3ccco3)n2)cc1", "Potency": "inconclusive: 11.2 µM [inhibitor, partial curve]"}, {"smiles": "Cc1ccc(Nc2cc(C)nc3c(C)ccc([N+](=O)[O-])c23)cc1", "Potency": "inconclusive: 22.4 µM [inhibitor, partial curve]"}, {"smiles": "Clc1ccc(C2=Nn3c(nnc3-c3cc(-c4ccccc4)n[nH]3)SC2)cc1", "Potency": "inactive"}, {"smiles": "CCOc1ccc(/C=C2\\SC(=S)N(NS(=O)(=O)c3ccccc3)C2=O)cc1OC", "Potency": "active: 14.1 µM"}, {"smiles": "COCCCNC(=O)CC(NS(=O)(=O)c1ccc(C)cc1)c1ccc(OC)cc1", "note": "(configuration not stated)", "Potency": "inactive"}, {"smiles": "CCOc1ccc(S(=O)(=O)Nc2nc3ccccc3nc2Nc2ccc(OC)cc2)cc1", "Potency": "inconclusive: 5.01 µM [inhibitor, partial curve]"}, {"smiles": "O=c1c2c3nc4ccccc4nc3n(-c3ccc4c(c3)OCCO4)c2ncn1CC1CCCO1", "note": "(configuration not stated)", "Potency": "inconclusive: 20 µM [inhibitor, partial curve]"}, {"smiles": "Cc1ccccc1OCC(=O)Nc1nnc(-c2ccncc2)s1", "Potency": "inconclusive: 11.2 µM [inhibitor, partial curve, poor fit]"}, {"smiles": "Cc1nc2ccccc2c(=O)n1/N=C/c1c(O)ccc2oc3c(c12)CCCC3", "Potency": "inconclusive: 28.2 µM [inhibitor, partial curve]"}, {"smiles": "OCC1O[C@@H](OC2C(O)C(CO)O[C@@]2(CO)O[C@@H]2OC(CO)C(O)C(O)C2O)C(O)C(O)C1O", "note": "(some centres not stated)", "Potency": "inactive"}, {"smiles": "COc1ccc(C2CC(=O)Oc3c(C(CCN4CCCC(C)C4)c4ccc(N(C)C)cc4)c(OC)cc(OC)c32)cc1", "note": "(configuration not stated)", "Potency": "inactive"}, {"smiles": "Cc1cccc(NC(=O)C(NS(=O)(=O)c2ccc3c(c2)oc(=O)n3C)C(C)C)c1", "note": "(configuration not stated)", "Potency": "inactive"}, {"smiles": "O=C(Nc1cccc(C(=O)OCc2cc(=O)n3c4c(sc3n2)CCCC4)c1)c1ccccc1", "Potency": "inconclusive: 0.631 µM [inhibitor, full curve]"}, {"smiles": "COc1cc(OC)cc(C(=O)Nc2ccc3c(c2)COC3=O)c1", "Potency": "inconclusive: 3.98 µM [inhibitor, full curve]"}, {"smiles": "CC1(C)NC(=O)N(CCCCOc2ccc3ccccc3c2Cl)C1=O", "Potency": "inactive"}, {"smiles": "O=C(Nc1nc2ccccc2s1)c1ccc2c(c1)S(=O)(=O)c1ccccc1C2=O", "Potency": "inconclusive: 25.1 µM [inhibitor, partial curve, poor fit]"}, {"smiles": "Cc1noc(C)c1C(=O)N1CCN(CCc2ccccc2)CC1", "Potency": "inactive"}, {"smiles": "CCN(CC)c1ccc(NC(=O)Cn2nc(C)n3cccc3c2=O)c(C)c1", "Potency": "inconclusive: 2.51 µM [activator, full curve]"}, {"smiles": "Cc1cccc(-n2ncc3c(N4CCN(c5ccccc5)CC4)ncnc32)c1", "Potency": "inconclusive: 1.58 µM [inhibitor, full curve]"}, {"smiles": "Cc1nc(-c2ccc(S(=O)(=O)NCc3ccc(N(C)C)cc3)cc2)co1", "Potency": "inconclusive: 20 µM [inhibitor, partial curve]"}, {"smiles": "CCOC(=O)c1c(C)n(C)c2ccc(OCC(O)Cn3c(C)nc4ccccc43)cc12", "note": "(configuration not stated)", "Potency": "inconclusive: 17.8 µM [inhibitor, partial curve]"}, {"smiles": "CCOC(=O)c1ccc(N2C(=O)C3C(C2=O)C(C(=O)c2ccc(Cl)cc2)N2CCCC32)cc1", "note": "(configuration not stated)", "Potency": "inconclusive: 28.2 µM [inhibitor, partial curve]"}, {"smiles": "CCC(=O)NC(=S)Nc1ccc(-c2nc3ccccc3s2)cc1", "Potency": "inconclusive: 0.355 µM [inhibitor, full curve]"}, {"smiles": "COc1cc(C(=S)N2CCOCC2)ccc1OC(=O)c1cc([N+](=O)[O-])cc([N+](=O)[O-])c1", "Potency": "inconclusive: 12.6 µM [inhibitor, partial curve]"}, {"smiles": "Cc1ccccc1NC(=O)CCC(=O)N/N=C/c1c[nH]c2ccccc12", "Potency": "inconclusive: 17.8 µM [inhibitor, partial curve]"}, {"smiles": "CCC(=O)Nc1ccc(C(=O)CSc2nnc(-c3ccc(O)cc3)n2CC2CCCO2)cc1", "note": "(configuration not stated)", "Potency": "inactive"}, {"smiles": "COc1ccnc(N2CCN(c3ccc(Cl)cc3)CC2)c1C#N", "Potency": "inconclusive: 2 µM [inhibitor, full curve]"}, {"smiles": "O=C(N/N=C/c1ccc2cccnc2c1)c1ccco1", "Potency": "inconclusive: 31.6 µM [inhibitor, partial curve]"}, {"smiles": "O=C(NCc1ccccc1)c1ccc(-c2ccccc2C(F)(F)F)o1", "Potency": "inconclusive: 28.2 µM [inhibitor, partial curve, poor fit]"}, {"smiles": "CCn1nc(C)c(/C=N\\NC(=O)c2ccc3c(c2)OCO3)c1C", "Potency": "inconclusive: 20 µM [inhibitor, single point]"}, {"smiles": "COc1cc(CCC(=O)NCc2ccc3c(c2)CCN3C(=O)c2ccc(F)cc2)cc(OC)c1OC", "Potency": "inactive"}, {"smiles": "O=C(CN1CCN(c2ccccn2)CC1)NCCc1ccccc1", "Potency": "inactive"}, {"smiles": "COc1cc2ccccc2cc1C(=O)N1CCN(c2nc3ccc(F)cc3s2)CC1", "Potency": "inconclusive: 35.5 µM [inhibitor, single point]"}, {"smiles": "Cc1ccc(/C(O)=C/c2nc3cc(C)ccc3oc2=O)cc1", "Potency": "inactive"}, {"smiles": "Cc1ccc(Nc2nnc(SCC(=O)Nc3ncc(S(=O)(=O)c4ccc([N+](=O)[O-])cc4)s3)s2)cc1", "Potency": "inactive"}, {"smiles": "O=C(N/N=C/c1c[nH]c2c1ccc1ccccc12)c1ccc([N+](=O)[O-])cc1", "Potency": "inconclusive: 0.501 µM [inhibitor, full curve]"}, {"smiles": "CCC(C)(C)NC(=O)C1c2ccccc2Oc2ccccc21", "Potency": "inactive"}, {"smiles": "O=C(CN1CCCc2ccccc21)NCCc1ccc(F)cc1", "Potency": "inactive"}, {"smiles": "CCCCn1c(O)c(/C=C/C=C/C=Nc2ccccc2)sc1=S", "Potency": "active: 3.16 µM"}, {"smiles": "NC(=O)CNC(=O)[C@@H]1CC2(CC(c3cccc([N+](=O)[O-])c3)=NO2)CN1C(=O)c1ccccc1", "note": "(some centres not stated)", "Potency": "inactive"}, {"smiles": "N#CC(c1nc2ccccc2nc1N1CCOCC1)S(=O)(=O)c1ccccc1", "note": "(configuration not stated)", "Potency": "inactive"}, {"smiles": "C=C(C)CN=c1scc(C)n1/N=C/c1ccco1", "Potency": "inactive"}, {"smiles": "COc1ccc(NC(=S)N(CCCN2CCN(C)CC2)Cc2cccs2)cc1", "Potency": "inactive"}, {"smiles": "CC(=O)NC(CC(=O)Nc1cccc(S(=O)(=O)N2CCCCC2)c1)c1ccccc1", "note": "(configuration not stated)", "Potency": "inactive"}, {"smiles": "Cc1ccc2ccccc2[n+]1CCCS(=O)(=O)[O-]", "Potency": "inactive"}, {"smiles": "C/C(=N\\NC(=O)c1c(Br)c(C)nn1C)c1cccc(NC(=O)C2CCC2)c1", "Potency": "inconclusive: 14.1 µM [inhibitor, partial curve, poor fit]"}, {"smiles": "N#Cc1ccc(-c2csc(NC(=O)/C=C/c3cccs3)n2)cc1", "Potency": "inconclusive: 1.41 µM [inhibitor, full curve, poor fit]"}, {"smiles": "CC1CCN(C(=S)c2ccc([N+](=O)[O-])cc2)CC1", "Potency": "inconclusive: 25.1 µM [inhibitor, partial curve, poor fit]"}, {"smiles": "c1ccc(-c2ccc3c(c2)NCCN3)cc1", "Potency": "inconclusive: 14.1 µM [inhibitor, partial curve]"}, {"smiles": "O=C(Nc1ccc(F)cc1F)c1cc2nc(-c3ccco3)cc(C(F)(F)Cl)n2n1", "Potency": "inactive"}, {"smiles": "O=C(/C=C/NCC(=O)c1ccccc1)c1ccc(Br)cc1", "Potency": "inconclusive: 15.8 µM [inhibitor, partial curve]"}, {"smiles": "CC#CCOC(=O)C1=CCCN(C)C1", "Potency": "inactive"}, {"smiles": "c1ccc(-c2csc(Nc3cccnc3)n2)nc1", "Potency": "inconclusive: 35.5 µM [inhibitor, single point]"}, {"smiles": "CCC(C)NC(=O)CSc1nc2n[nH]c(C)c2c(=N)n1-c1ccc(C)c(Cl)c1", "note": "(configuration not stated)", "Potency": "inactive"}, {"smiles": "O=C(Oc1coc(CSc2ncccn2)cc1=O)c1ccccc1[N+](=O)[O-]", "Potency": "inconclusive: 15.8 µM [inhibitor, partial curve]"}, {"smiles": "CCN(C(=O)Cn1nnc2sc(-c3ccccc3)cc2c1=O)c1cccc(C)c1", "Potency": "inconclusive: 11.2 µM [inhibitor, partial curve]"}, {"smiles": "CC(C)n1c(CSCc2ccc(Cl)cc2Cl)n[nH]c1=S", "Potency": "inactive"}, {"smiles": "Cc1ccc2oc(=O)c3cnn(CC(=O)N4CCN(c5ccccc5)CC4)c3c2c1", "Potency": "inconclusive: 7.94 µM [inhibitor, partial curve]"}, {"smiles": "O=C(NCc1ccco1)C(=O)NCC1OCCCN1S(=O)(=O)c1ccc(F)cc1", "note": "(configuration not stated)", "Potency": "inactive"}, {"smiles": "C=CCN1C(=O)/C(=C\\c2cccs2)C(C(=O)OC)=C1C", "Potency": "inconclusive: 17.8 µM [inhibitor, partial curve]"}, {"smiles": "CCOC(=O)c1c(C)c(C(=O)NCc2ccccn2)c(C)n1C", "Potency": "inconclusive: 17.8 µM [inhibitor, partial curve]"}, {"smiles": "O=c1cc(-c2ccc(O)cc2)oc2cccc(O)c12", "Potency": "inconclusive: 7.94 µM [inhibitor, partial curve]"}, {"smiles": "CC1(C)Cc2ccccc2C(NNC(=O)c2ccccn2)=N1", "Potency": "inactive"}, {"smiles": "Cc1noc(C)c1-c1nc(NCc2cccnc2)c2ccccc2n1", "Potency": "inconclusive: 1.78 µM [inhibitor, partial curve]"}, {"smiles": "C=C(CC1([C@@H](NP(=O)(c2ccccc2)c2ccccc2)[C@H]2C[C@@H]2CCCC)CC1)c1cccc(OC)c1", "Potency": "inconclusive: 44.7 µM [inhibitor, single point]"}, {"smiles": "CCCCn1c(C(C)NC(=O)c2ccccc2)nc2ccccc21", "note": "(configuration not stated)", "Potency": "inactive"}, {"smiles": "COc1ccccc1-c1cc2nc(C)c(CCC(=O)NCc3cccc(Cl)c3)c(C)n2n1", "Potency": "inactive"}, {"smiles": "COc1ccc(C2CC(=O)N(CCCN(C)CCc3ccc(OC)c(OC)c3)C2)cc1", "note": "(configuration not stated)", "Potency": "inactive"}, {"smiles": "Cc1noc(NS(=O)(=O)c2ccc(N/C=C/C(=O)c3ccncc3)cc2)c1C", "Potency": "inconclusive: 28.2 µM [inhibitor, partial curve]"}]}]}
